Measured values taken from paper PMC9911399, “Two distinct binding modes provide the RNA-binding protein RbFox with extraordinary sequence specificity”.
Positions count from the first letter of the chain named. The list shows a part of the results.

T1: RBFOX1 RRM (Homo sapiens, UniProt Q9NWB1 109-208)
T1 sequence: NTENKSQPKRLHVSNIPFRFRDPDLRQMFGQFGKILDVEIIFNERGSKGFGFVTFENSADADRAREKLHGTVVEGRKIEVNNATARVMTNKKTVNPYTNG

B1: AUUCACC (DNA:RNA)
RNA: GGGAGACCGGAAUUCAGAUUGUCCAUUCACCUUAAAUCCCGUCGUAGCCACCA
DNA 1: CAATCTGAATTCCGGTCTCCC
DNA 2: TGGTGGCTACGACGGGATT
B2: ACGACUU (DNA:RNA)
RNA: B1 RNA with U26C, U27G, C28A, A29C, C30U, C31U
DNA 1: CAATCTGAATTCCGGTCTCCC
DNA 2: TGGTGGCTACGACGGGATT
B3: GCCGCCG (DNA:RNA)
RNA: B1 RNA with A25G, U26C, U27C, C28G, A29C, C31G
DNA 1: CAATCTGAATTCCGGTCTCCC
DNA 2: TGGTGGCTACGACGGGATT
B4: AUGAGGA (DNA:RNA)
RNA: B1 RNA with U27G, C28A, A29G, C30G, C31A
DNA 1: CAATCTGAATTCCGGTCTCCC
DNA 2: TGGTGGCTACGACGGGATT
B5: AAGAGUA (DNA:RNA)
RNA: B1 RNA with U26A, U27G, C28A, A29G, C30U, C31A
DNA 1: CAATCTGAATTCCGGTCTCCC
DNA 2: TGGTGGCTACGACGGGATT
B6: CGCGUCU (DNA:RNA)
RNA: B1 RNA with A25C, U26G, U27C, C28G, A29U, C31U
DNA 1: CAATCTGAATTCCGGTCTCCC
DNA 2: TGGTGGCTACGACGGGATT
B7: AACCGCU (DNA:RNA)
RNA: B1 RNA with U26A, U27C, A29G, C31U
DNA 1: CAATCTGAATTCCGGTCTCCC
DNA 2: TGGTGGCTACGACGGGATT
B8: CCACAAG (DNA:RNA)
RNA: B1 RNA with A25C, U26C, U27A, C30A, C31G
DNA 1: CAATCTGAATTCCGGTCTCCC
DNA 2: TGGTGGCTACGACGGGATT
B9: AACGCAG (DNA:RNA)
RNA: B1 RNA with U26A, U27C, C28G, A29C, C30A, C31G
DNA 1: CAATCTGAATTCCGGTCTCCC
DNA 2: TGGTGGCTACGACGGGATT
B10: CACCGCG (DNA:RNA)
RNA: B1 RNA with A25C, U26A, U27C, A29G, C31G
DNA 1: CAATCTGAATTCCGGTCTCCC
DNA 2: TGGTGGCTACGACGGGATT
B11: UGGUCUG (DNA:RNA)
RNA: GGGAGACCGGAAUUCAGAUUGUCCUGGUCUGUUAAAUCCCGUCGUAGCCACCA
DNA 1: CAATCTGAATTCCGGTCTCCC
DNA 2: TGGTGGCTACGACGGGATT
B12: AAGUUAC (DNA:RNA)
RNA: B1 RNA with U26A, U27G, C28U, A29U, C30A
DNA 1: CAATCTGAATTCCGGTCTCCC
DNA 2: TGGTGGCTACGACGGGATT
B13: ACGCCAG (DNA:RNA)
RNA: B11 RNA with U25A, G26C, U28C, U30A
DNA 1: CAATCTGAATTCCGGTCTCCC
DNA 2: TGGTGGCTACGACGGGATT
B14: AUCCGCU (DNA:RNA)
RNA: B1 RNA with U27C, A29G, C31U
DNA 1: CAATCTGAATTCCGGTCTCCC
DNA 2: TGGTGGCTACGACGGGATT
B15: CCGUAAA (DNA:RNA)
RNA: B11 RNA with U25C, G26C, C29A, U30A, G31A
DNA 1: CAATCTGAATTCCGGTCTCCC
DNA 2: TGGTGGCTACGACGGGATT
B16: UUGUGUA (DNA:RNA)
RNA: B11 RNA with G26U, C29G, G31A
DNA 1: CAATCTGAATTCCGGTCTCCC
DNA 2: TGGTGGCTACGACGGGATT
B17: UUACGAA (DNA:RNA)
RNA: B1 RNA with A25U, U27A, A29G, C30A, C31A
DNA 1: CAATCTGAATTCCGGTCTCCC
DNA 2: TGGTGGCTACGACGGGATT
B18: CUCACUA (DNA:RNA)
RNA: B11 RNA with U25C, G26U, G27C, U28A, G31A
DNA 1: CAATCTGAATTCCGGTCTCCC
DNA 2: TGGTGGCTACGACGGGATT
B19: UAAAAUA (DNA:RNA)
RNA: B11 RNA with G26A, G27A, U28A, C29A, G31A
DNA 1: CAATCTGAATTCCGGTCTCCC
DNA 2: TGGTGGCTACGACGGGATT
B20: AGACACG (DNA:RNA)
RNA: B1 RNA with U26G, U27A, C31G
DNA 1: CAATCTGAATTCCGGTCTCCC
DNA 2: TGGTGGCTACGACGGGATT

These binders were tested against T1, RBFOX1 RRM (assay: EMSA; HiTS-Eq, 1 nM pool, 10 min; buffer printed only for the single-RNA assays: 10 mM Tris pH 7.5, 150 mM NaCl, 3.4 mM EDTA, 0.001% NP-40, 30 C). Conditions: tags: His6 N-terminal (pET28a); label: 5' 32P.
In short: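 Purified wild-type or mutant RbFox RRM at increasing concentrations was equilibrated with 1 nM of 5′-radiolabelled RNA carrying 7 randomized nucleotides for 10 min in 50 µL. Unbound RNA was separated by 8% native PAGE and sequenced. Relative association constants came from read-count changes of each RNA species compared with the control reaction, normalised to the cognate motif.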

**Q.** How did the binding signal turn out when B1 was run?
**A.** The binding signal was 0.00129 KA relative to UGCAUGU.

**Q.** Which binding signal does the source give for B2 here?
**A.** Its binding signal is 0.00346 KA relative to UGCAUGU.

**Q.** For B3, which binding signal is on record?
**A.** Its binding signal is 0.0158 KA relative to UGCAUGU.

**Q.** B4 was tested. Which binding signal did it give?
**A.** Its binding signal is 0.00447 KA relative to UGCAUGU.

**Q.** How did the binding signal turn out when B5 was run?
**A.** Its binding signal is 0.00259 KA relative to UGCAUGU.

**Q.** How did the binding signal turn out when B6 was run?
**A.** Its binding signal is 0.0103 KA relative to UGCAUGU.

**Q.** Which binding signal does the source give for B7 here?
**A.** The binding signal was 0.00231 KA relative to UGCAUGU.

**Q.** Which binding signal does the source give for B8 here?
**A.** Its binding signal is 0.00421 KA relative to UGCAUGU.

**Q.** Which binding signal does the source give for B9 here?
**A.** Its binding signal is 0.00646 KA relative to UGCAUGU.

**Q.** How did the binding signal turn out when B10 was run?
**A.** Its binding signal is 0.00124 KA relative to UGCAUGU.

**Q.** For B11, which binding signal is on record?
**A.** Its binding signal is 0.0221 KA relative to UGCAUGU.

**Q.** With B12 as the binder, how does the binding signal read?
**A.** The binding signal was 0.00621 KA relative to UGCAUGU.

**Q.** For B13, which binding signal is on record?
**A.** The binding signal was 0.00699 KA relative to UGCAUGU.

**Q.** With B14 as the binder, how does the binding signal read?
**A.** The binding signal was 0.00392 KA relative to UGCAUGU.

**Q.** For B15, which binding signal is on record?
**A.** Its binding signal is 0.00489 KA relative to UGCAUGU.

**Q.** How did the binding signal turn out when B16 was run?
**A.** Its binding signal is 0.0164 KA relative to UGCAUGU.

**Q.** How did the binding signal turn out when B17 was run?
**A.** Its binding signal is 0.00945 KA relative to UGCAUGU.

**Q.** Which binding signal does the source give for B18 here?
**A.** The binding signal was 0.00245 KA relative to UGCAUGU.

**Q.** How did the binding signal turn out when B19 was run?
**A.** The binding signal was 0.0019 KA relative to UGCAUGU.

**Q.** B20 was tested. Which binding signal did it give?
**A.** Its binding signal is 0.00775 KA relative to UGCAUGU.
